Experimental data as given in the supplement of paper PMC12217912.
The other results are listed elsewhere or left out. The full chains were built here from the parent and the listed change. Values near 0.05 are background.

B1: TEV protease; numbered along this chain (parent)
chain: MGESLFKGPRDYNPISSSICHLTNESDGHTTSLYGIGFGPFIITNKHLFRRNNGTLVVQSLHGVFKVKDTTTLQQHLVDGRDMIIIRMPKDFPPFPQKLKFREPQREERICLVTTNFQTKSMSSMVSDTSCTFPSGDGIFWKHWIQTKDGQCGSPLVSTRDGFIVGIHSASNFTNTNNYFTSVPKNFMELLTNQEAQQWVSGWRLNADSVLWGGHKVFMVKPEEPFQPVKEATQL

Variants of: B1
Assay: raw area under fraction-flipped curve 0-4 h after induction (AUC4h, not background-subtracted), DNA-recorder readout of cleavage of the substrate (dimensionless); higher = more cleavage of the substrate by the protease variant
Details: temperature: 34 °C; time window: 0-4 h after rhamnose induction
Experimental: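 In vivo DNA recorder in E. coli TOP10(DE3) ΔrhaA at 34 °C. Each TEVp single-site mutant (parent TEVp 0) is paired with a single-site variant of the 7-mer TEVs (canonical ENLYFQ|S). The substrate sits between flexible linkers in a Bxb1-sfGFP-TEVs-SsrA fusion, so cleavage stabilises Bxb1 and speeds flipping of a recombination array, read by NGS. The value is the raw area under the fraction-flipped curve over 0-4 h after rhamnose induction (AUC4h), with ≥20 reads per time point. It is not background-subtracted; inactive controls average about 0.047.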
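Also: Bxb1 expression induced with 0.2% (w/v) L-rhamnose at OD600 near 0.5, cultures sampled hourly, flipped fraction per protease–substrate barcode pair counted by paired-end Illumina sequencing.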

| Variant | area with substrate ENLYCQS | area with substrate ENLYDQS | area with substrate ENLYEQS | area with substrate ENLYHQS | area with substrate ENLYIQS | area with substrate ENLYKQS | area with substrate ENLYLQS | area with substrate ENLYMQS | area with substrate ENLYNQS | area with substrate ENLYPQS | area with substrate ENLYQQS | area with substrate ENLYRQS | area with substrate ENLYSQS | area with substrate ENLYTQS | area with substrate ENLYWQS | area with substrate ENLYYQS | area with substrate ENLYAQS | area with substrate ENLYGQS | area with substrate ENLYVQS |
| --- | --- | --- | --- | --- | --- | --- | --- | --- | --- | --- | --- | --- | --- | --- | --- | --- | --- | --- | --- |
| H21V | 0.0801 | 0.0608 | 0.0578 | 0.0732 | 0.127 | 0.0441 | 0.0891 | 0.0742 | 0.0648 | 0.0544 | 0.0613 | 0.0656 | 0.0749 | 0.0877 | 0.0797 | 0.0671 | – | – | – |
| M219W | 0.081 | 0.0517 | 0.0642 | 0.0547 | 0.0809 | 0.0653 | 0.0773 | 0.0932 | 0.0601 | 0.0683 | 0.0611 | 0.0516 | – | – | 0.084 | 0.0728 | 0.0531 | 0.0679 | – |
| N116Y | 0.0868 | – | – | 0.0666 | 0.134 | 0.0941 | – | – | 0.07 | – | – | – | – | 0.0851 | 0.0654 | – | – | 0.0597 | – |
| R160W | 0.0597 | – | 0.0796 | – | – | 0.0772 | – | 0.106 | – | 0.0877 | – | 0.0636 | – | 0.1 | 0.103 | – | 0.058 | – | – |
| S4Y | – | 0.0565 | 0.0567 | 0.0561 | – | – | 0.0927 | 0.13 | – | 0.0843 | – | 0.0738 | 0.101 | 0.0873 | 0.12 | – | 0.0397 | – | – |
| W199F | 0.0685 | 0.0598 | 0.0629 | 0.0712 | 0.0745 | – | – | 0.0694 | 0.0645 | 0.0628 | – | 0.059 | – | 0.0613 | – | 0.0638 | 0.0687 | 0.0489 | – |
| S121K | 0.0836 | 0.0388 | – | 0.075 | 0.131 | – | – | 0.0883 | 0.0794 | 0.0775 | 0.076 | 0.0577 | 0.0973 | – | 0.081 | – | – | 0.065 | – |
| P184F | 0.0755 | 0.0562 | – | 0.0652 | 0.0939 | 0.0684 | – | – | – | 0.0612 | 0.049 | – | 0.0886 | – | 0.0543 | – | – | 0.0628 | 0.0886 |
| G63L | 0.0752 | 0.0885 | 0.0633 | 0.0557 | 0.102 | 0.0469 | 0.0711 | – | – | 0.055 | 0.0599 | 0.0577 | 0.0809 | – | 0.077 | 0.0565 | – | 0.059 | 0.104 |
| Q118Y | – | 0.0441 | 0.0656 | 0.0768 | 0.116 | – | – | 0.0461 | 0.0689 | – | 0.0725 | 0.0715 | – | 0.0807 | 0.0744 | – | 0.0762 | – | – |
| S171H | 0.0721 | 0.053 | 0.0625 | 0.0569 | – | 0.0607 | – | 0.0745 | 0.0629 | 0.0704 | 0.0575 | 0.0679 | 0.0801 | 0.0386 | 0.0591 | 0.0398 | 0.0688 | 0.0619 | 0.0686 |
| G136D | 0.0959 | 0.0593 | 0.0597 | 0.0788 | – | 0.0748 | 0.0687 | 0.0597 | 0.061 | 0.0674 | – | 0.0558 | 0.0736 | 0.061 | 0.0611 | 0.0583 | 0.0695 | – | 0.12 |
| M122I | – | – | – | 0.0735 | 0.12 | 0.0645 | 0.07 | – | – | 0.0828 | 0.0182 | 0.064 | 0.0621 | 0.0751 | – | – | 0.0519 | 0.0685 | 0.128 |
| H62Y | 0.0729 | – | – | 0.0665 | – | 0.0545 | 0.0892 | 0.0833 | 0.0547 | – | 0.0454 | 0.0543 | – | 0.113 | 0.0928 | 0.0718 | – | 0.0645 | 0.108 |
| T30R | 0.0694 | 0.0416 | 0.0743 | 0.0714 | 0.122 | 0.0749 | 0.0857 | 0.0919 | 0.0838 | 0.0822 | 0.0561 | 0.0727 | 0.0769 | – | 0.0736 | – | – | 0.0605 | 0.124 |
| D82L | 0.0547 | 0.0551 | 0.0539 | 0.0391 | 0.0543 | – | – | – | 0.059 | – | 0.0516 | – | 0.0622 | 0.0517 | 0.0508 | – | – | 0.0357 | – |
| L235Q | 0.0977 | 0.0556 | 0.0712 | 0.0695 | 0.102 | 0.0576 | – | 0.0619 | 0.0806 | 0.0778 | 0.0622 | 0.0645 | 0.0792 | – | 0.0771 | 0.0575 | 0.0785 | 0.0591 | 0.106 |
| L205H | 0.0801 | – | – | 0.0847 | 0.0519 | 0.0466 | – | 0.0536 | – | – | – | – | – | – | 0.0654 | 0.0671 | – | 0.0887 | – |
| I85Y | 0.0225 | – | 0.0496 | 0.0543 | 0.0628 | 0.0572 | 0.0936 | 0.0674 | – | – | 0.059 | 0.0648 | – | – | 0.0585 | – | – | 0.0475 | 0.0709 |
| F117E | 0.0949 | 0.0685 | 0.0604 | 0.0675 | 0.117 | 0.0252 | – | 0.0811 | 0.0911 | 0.0648 | 0.0662 | 0.0691 | 0.0884 | – | 0.0823 | – | 0.0704 | – | 0.105 |
| S182R | 0.0651 | 0.0477 | 0.0608 | – | 0.0968 | – | – | – | 0.0519 | 0.0541 | 0.0561 | 0.0521 | 0.0509 | 0.0778 | 0.0572 | 0.0616 | 0.0583 | 0.062 | 0.077 |
| F41Q | 0.0584 | 0.0452 | 0.0609 | 0.0581 | 0.0974 | 0.0462 | 0.0683 | 0.0663 | – | 0.0644 | 0.0514 | 0.0644 | 0.0689 | 0.0563 | 0.0655 | 0.0538 | 0.0533 | 0.0561 | 0.0979 |
| E195A | 0.0945 | – | 0.0571 | 0.0639 | – | 0.0686 | 0.0351 | 0.0802 | 0.0646 | – | 0.0659 | – | 0.0811 | 0.0731 | 0.0786 | – | – | 0.0858 | 0.102 |
| L211M | 0.0876 | 0.075 | 0.0791 | 0.0706 | 0.0793 | 0.0496 | 0.0573 | – | 0.083 | 0.0616 | 0.0547 | 0.0564 | 0.0826 | 0.06 | – | – | – | 0.07 | 0.14 |
| E189G | 0.104 | – | 0.0582 | 0.0535 | – | 0.059 | 0.0772 | 0.0885 | 0.078 | 0.0708 | 0.0643 | – | 0.0686 | 0.0871 | 0.0853 | 0.0743 | – | – | – |
| I167V | 0.103 | – | 0.0587 | 0.0581 | 0.115 | 0.0592 | – | 0.0704 | – | 0.079 | – | 0.0558 | 0.0685 | – | 0.07 | – | 0.068 | – | 0.0967 |
